Assay results taken from the supplement of paper PMC6609913.
Structures can show the parent of a compound that is named as a salt. ± gives the standard deviation of the averaged measurements. Over roughly 1,300 compounds, “normalised cell viability” has its median near 1; the lowest 2% begin near 0.15. This is one part of the list.

Test system: V-C8 + BRCA2 (BRCA2-proficient hamster cells)
Assay: normalised cell viability (fraction of plate median); higher = more viable cells (less toxic)
Details: 5 µM
In short: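 Hamster V-C8 cells lacking BRCA2 and V-C8 cells with BRCA2 restored were seeded in 96-well plates. Library drugs (10 mM DMSO stocks) were added 24 h later at 5 μM in 100 μl medium, next to DMSO control wells, for 3 days (screen 1) or 6 days (screen 2). Cell viability was read by resazurin assay, median-plate normalised (modified robust per cent of sample), and triplicate wells were averaged.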

SMILES | normalised cell viability (treatment time: 3 days) | normalised cell viability (treatment time: 6 days)
O=c1[nH]c(=O)n([C@H]2C[C@H](O)[C@@H](CO)O2)cc1I [Idoxuridine] | 0.403 ± 0.013 | 0.392 ± 0.0092
Cc1cccc(N(C)C(=S)Oc2ccc3ccccc3c2)c1 [Tolnaftate] | 1.02 ± 0.027 | 1.04 ± 0.044
CC1(C)O[C@@H]2C[C@H]3[C@@H]4C[C@H](F)C5=CC(=O)CC[C@]5(C)[C@H]4[C@@H](O)C[C@]3(C)[C@]2(C(=O)CO)O1 [Flurandrenolide] | 1.01 ± 0.13 | 1.07 ± 0.055
NNC(=O)c1ccncc1 [Isoniazid] | 1.01 ± 0.062 | 1.05 ± 0.043
CCC[C@@H]1C[C@@H](C(=O)N[C@@H]([C@H]2O[C@H](SC)[C@H](O)[C@@H](O)[C@H]2O)[C@@H](C)O)N(C)C1 [Lincomycin hydrochloride] | 1.01 ± 0.031 | 1.11 ± 0.046
CN1CCCN=C1/C=C/c1cccs1 [Pyrantel tartrate] | 1.04 ± 0.05 | 1.03 ± 0.026
CCN(CC)CCN[C@@H](C(=O)OCCC(C)C)c1ccccc1 [Camylofine chlorhydrate] | 0.957 ± 0.014 | 0.998 ± 0.096
O=C(Nc1ccc([N+](=O)[O-])cc1Cl)c1cc(Cl)ccc1O [Niclosamide] | 0.139 ± 0.0082 | 0.127 ± 0.0065
CCOc1ccc(Cc2nccc3cc(OCC)c(OCC)cc23)cc1OCC [Ethaverine hydrochloride] | 0.834 ± 0.036 | 0.445 ± 0.019
CC12CC3CC(C)(C1)CC(N)(C3)C2 [Memantine Hydrochloride] | 0.955 ± 0.035 | 1.03 ± 0.022
O=C1c2cccc(O)c2C(=O)c2c(O)cccc21 [1,8-Dihydroxyanthraquinone] | 0.853 ± 0.051 | 0.914 ± 0.076
CC(C)NNC(=O)c1ccncc1 [Iproniazide phosphate] | 0.962 ± 0.016 | 0.974 ± 0.028
CCN(CC)CCNC(=O)c1cc(Br)c(N)cc1OC [Bromopride] | 0.948 ± 0.064 | 0.999 ± 0.061
CCCCC(=O)N(Cc1ccc(-c2ccccc2-c2nnn[nH]2)cc1)[C@H](C(=O)O)C(C)C [Valsartan] | 0.988 ± 0.14 | 0.954 ± 0.083
OC(CCN1CCCCC1)(c1ccccc1)c1ccccc1 [Pridinol methanesulfonate salt] | 0.942 ± 0.06 | 0.871 ± 0.038
CCOC(=O)C1=C(C)NC(C)=C(C(=O)OC)C1c1cccc(Cl)c1Cl (configuration not stated) [Felodipine] | 0.718 ± 0.052 | 0.533 ± 0.066
C[C@H](CCC(=O)O)[C@H]1CC[C@H]2[C@@H]3C(=O)C[C@@H]4CC(=O)CC[C@]4(C)[C@H]3CC(=O)[C@]12C [Dehydrocholic acid] | 1.15 ± 0.047 | 1.07 ± 0.068
O=C1c2c(O)ccc(O)c2C(=O)c2c(NCCNCCO)ccc(NCCNCCO)c21 [Mitoxantrone dihydrochloride] | 0.123 ± 0.0098 | 0.124 ± 0.0098
O=C(NC(Cc1cc(=O)[nH]c2ccccc12)C(=O)O)c1ccc(Cl)cc1 (configuration not stated) [Rebamipide] | 1.25 ± 0.29 | 1.06 ± 0.047
CC(C)(C)NC[C@H](O)COc1cccc2c1CCCC2=O [(-) -Levobunolol hydrochloride] | 1.04 ± 0.021 | 1.011 ± 0.0087
C[N+](C)(C)CCOC(N)=O [Carbachol] | 0.953 ± 0.043 | 1.01 ± 0.036
Nc1ncn(C2OC(CO)C(O)C2O)c(=O)n1 (configuration not stated) [Azacytidine-5] | 0.736 ± 0.015 | 0.97 ± 0.014
O=C(O)CCC(=O)c1ccc(-c2ccccc2)cc1 [Fenbufen] | 1.03 ± 0.04 | 1.03 ± 0.041
CN1CCN2c3ccccc3Cc3ccccc3C2C1 (configuration not stated) [Mianserine hydrochloride] | 1.08 ± 0.089 | 1.14 ± 0.014

SMILES | normalised cell viability (treatment time: 3 days) | normalised cell viability (treatment time: 6 days)
N[C@@H](Cc1ccc(O)c(O)c1)C(=O)O [Levodopa] | 0.908 ± 0.037 | 0.931 ± 0.051
CC(=O)Oc1ccc(C(c2ccc(OC(C)=O)cc2)c2ccccn2)cc1 [Bisacodyl] | 1.07 ± 0.012 | 1 ± 0.1
CCCc1nn(C)c2c(=O)[nH]c(-c3cc(S(=O)(=O)N4CCN(C)CC4)ccc3OCC)nc12 [Sildenafil] | 1.01 ± 0.07 | 1.09 ± 0.048
CCCNC(C)(C)COC(=O)c1ccccc1 [Meprylcaine hydrochloride] | 0.98 ± 0.088 | 1.03 ± 0.14
CC(NCCc1ccc(O)cc1)C(O)c1ccc(O)cc1 (configuration not stated) [Ritodrine hydrochloride] | 1.123 ± 0.0075 | 1.05 ± 0.02
C[N+](C)(CCOc1ccccc1)Cc1ccccc1.O=C([O-])c1cc2ccccc2cc1O [Bephenium hydroxynaphthoate] | 1.02 ± 0.039 | 1.06 ± 0.033
NC1CCN(c2c(F)cc3c(=O)c(C(=O)O)cn(C4CC4)c3c2Cl)C1 (configuration not stated) [Clinafloxacin] | 0.961 ± 0.075 | 0.894 ± 0.013
CCC1(C)CC(=O)NC1=O (configuration not stated) [Ethosuximide] | 1.02 ± 0.074 | 0.974 ± 0.042
CCc1nn(CCCN2CCN(c3cccc(Cl)c3)CC2)c(=O)n1CCOc1ccccc1 [Nefazodone HCl] | 1.02 ± 0.011 | 0.989 ± 0.025
OCCN1CCN(CC/C=C2/c3ccccc3Sc3ccc(Cl)cc32)CC1 [Zuclopenthixol hydrochloride] | 0.754 ± 0.024 | 0.7712 ± 0.0039
Nc1nc(/C(=C/CC(=O)O)C(=O)N[C@@H]2C(=O)N3C(C(=O)O)=CCS[C@H]23)cs1 [Ceftibuten] | 0.909 ± 0.12 | 0.923 ± 0.066
CN(C)CCOC(=O)C(c1ccccc1)C1(O)CCCC1 (configuration not stated) [Cyclopentolate hydrochloride] | 0.974 ± 0.11 | 1.04 ± 0.083
Nc1ccc(/N=N/c2ccccc2)c(N)n1 [Phenazopyridine hydrochloride] | 1.02 ± 0.039 | 1.04 ± 0.035
CCC(=O)O[C@]1(C(=O)SCF)[C@H](C)C[C@H]2[C@@H]3C[C@H](F)C4=CC(=O)C=C[C@]4(C)[C@@]3(F)[C@@H](O)C[C@@]21C [Fluticasone propionate] | 0.932 ± 0.013 | 0.888 ± 0.026
O=C(O)c1ccccc1Nc1cccc(C(F)(F)F)c1 [Flufenamic acid] | 0.975 ± 0.023 | 1.06 ± 0.11
CC[N+](C)(CC)CCC[n+]1c(-c2ccccc2)c2cc(N)ccc2c2ccc(N)cc21 [Propidium iodide] | 0.88 ± 0.019 | 0.89 ± 0.037
O=C1O[C@H]([C@@H](O)CO)C(O)=C1O [Ascorbic acid] | 0.955 ± 0.018 | 1.12 ± 0.044
Clc1ccc(C(c2ccccc2Cl)C(Cl)Cl)cc1 (configuration not stated) [Mitotane] | 1.02 ± 0.035 | 1.01 ± 0.076
O=C1Nc2ccc(Cl)cc2[C@@](C#CC2CC2)(C(F)(F)F)O1 [Efavirenz] | 1.07 ± 0.034 | 1.038 ± 0.0087
Nc1ccc(C(=O)O)c(O)c1 [4-aminosalicylic acid] | 0.944 ± 0.086 | 1.03 ± 0.043
NCCCCCC(=O)O [Aminocaproic acid] | 0.899 ± 0.037 | 0.892 ± 0.057
CN(C)C(=N)NC(=N)N [Metformin hydrochloride] | 0.897 ± 0.085 | 0.985 ± 0.079
CC=CC(=O)N(CC)c1ccccc1C [Crotamiton] | 0.872 ± 0.066 | 0.933 ± 0.037
CNCCc1ccccn1 [Betahistine mesylate] | 1.04 ± 0.072 | 1.11 ± 0.078

SMILES | normalised cell viability (treatment time: 3 days) | normalised cell viability (treatment time: 6 days)
Nc1nc2c(ncn2COC(CO)CO)c(=O)[nH]1 [Ganciclovir] | 1.05 ± 0.03 | 0.973 ± 0.02
CO[C@H]1/C=C/O[C@@]2(C)Oc3c(C)c(O)c4c(O)c(c5c(nc6cc(C)ccn65)c4c3C2=O)NC(=O)/C(C)=C\C=C\[C@H](C)[C@H](O)[C@@H](C)[C@@H](O)[C@@H](C)[C@H](OC(C)=O)[C@@H]1C [Rifaximin] | 0.957 ± 0.037 | 0.951 ± 0.05
Clc1cccc(Cl)c1NC1=NCCN1 [Clonidine hydrochloride] | 0.986 ± 0.038 | 0.997 ± 0.01
O=C1[C@H]2CCCC[C@H]2C(=O)N1CCCCN1CCN(c2nsc3ccccc23)CC1 [Perospirone] | 1.02 ± 0.02 | 1.12 ± 0.1
CCN(CC)C(C)CN1c2ccccc2Sc2ccccc21 (configuration not stated) [Ethopropazine hydrochloride] | 1.09 ± 0.093 | 0.996 ± 0.033
CCCNC(=O)NS(=O)(=O)c1ccc(Cl)cc1 [Chlorpropamide] | 0.99 ± 0.023 | 1.08 ± 0.064
CC(=O)O[C@]1(C(C)=O)CC[C@H]2[C@@H]3C=C(Cl)C4=CC(=O)CC[C@]4(C)[C@H]3CC[C@@]21C [Chlormadinone acetate] | 1.03 ± 0.015 | 1.017 ± 0.0072
Cc1cc(O)c(C(=O)N[C@@H](C(=O)N[C@@H]2C(=O)N3C(C(=O)O)=C(CSc4nnnn4C)CS[C@H]23)c2ccc(O)cc2)cn1 [Cefpiramide] | 1.01 ± 0.08 | 1.04 ± 0.067
CN(CCCN1c2ccccc2CCc2ccccc21)CC(=O)c1ccc(Cl)cc1 [Lofepramine] | 0.9785 ± 0.0069 | 1 ± 0.094
CN(C)CCOC(c1ccccc1)c1ccccc1.Cn1c(=O)c2[nH]c(Cl)nc2n(C)c1=O [Dimenhydrinate] | 0.975 ± 0.025 | 1.06 ± 0.11
Clc1ccc2c(c1)CCc1cccnc1C2=C1CCNCC1 [Desloratadine] | 0.601 ± 0.039 | 0.605 ± 0.088
O=C1NCC2(CCN(CCc3ccccc3)CC2)O1 [Fenspiride hydrochloride] | 1.03 ± 0.051 | 1.06 ± 0.068
Cc1[nH]cnc1CN1CCc2c(c3ccccc3n2C)C1=O [Alosetron hydrochloride] | 1.05 ± 0.038 | 1.02 ± 0.086
CCCOc1ccc2[nH]c(NC(=O)OC)nc2c1 [Oxibendazol] | 0.18 ± 0.0021 | 0.194 ± 0.0035
O=C(c1ccc(F)cc1)C1CCN(CCn2c(=O)[nH]c3ccccc3c2=O)CC1 [Ketanserin tartrate hydrate] | 0.94 ± 0.049 | 0.964 ± 0.051
CCN(CC)C(=O)c1ccc(O)c(OC)c1 [Ethamivan] | 1.1 ± 0.014 | 1.05 ± 0.036
CN(C)CCC(c1ccc(Br)cc1)c1ccccn1 (configuration not stated) [Brompheniramine maleate] | 0.922 ± 0.077 | 0.992 ± 0.056
c1ccc(-c2ccc(C(c3ccccc3)n3ccnc3)cc2)cc1 (configuration not stated) [Bifonazole] | 0.951 ± 0.042 | 0.914 ± 0.066
Oc1c(Cl)cc(Cl)c2cccnc12 [Chloroxine] | 0.6 ± 0.025 | 0.6 ± 0.034
O=C1CC[C@@H](C(=O)N2CSC[C@H]2C(=O)O)N1 [Pidotimod] | 1.03 ± 0.021 | 1.04 ± 0.068
CC(=O)OC[C@H]1O[C@@H]([S-])[C@H](OC(C)=O)[C@@H](OC(C)=O)[C@@H]1OC(C)=O.CCP(CC)CC.[Au+] [Auranofin] | 0.126 ± 0.0085 | 0.128 ± 0.012
CCC1(c2ccccc2)C(=O)NCNC1=O [Primidone] | 0.947 ± 0.13 | 0.951 ± 0.1
Nc1ncnc2c1ncn2[C@@H]1O[C@H](CO)[C@@H](O)[C@@H]1O [Vidarabine] | 0.776 ± 0.015 | 0.937 ± 0.13
